From US20250179143A1, “SYSTEMS AND METHODS FOR CHAPERONE-MEDIATED LIGAND EXCHANGE ON MHC-I AND MHC-RELATED MOLECULES USING CHICKEN TAPBPR” (priority 2022, published 2025) come the findings set out here.

The nature of series [1]: DSF thermal stability of chaperone proteins. Conditions: DSF of the recombinant chaperone protein.
The target of the next series is HLA-A*02:01 (Homo sapiens, UniProt P04439, D140Y/D185E/D98H/E176V/E277Q/G131W/G231S/I119V/I121R/I166T/I218V/L300P/L318F/N151K/N90K/P208A/P217A/Q86G/Q94H/R138H/R169H/T345S). The series can be described thus: SPR. The following applies: peptide-deficient (empty) HLA-A*02:01.
The next series addresses HLA-A*01:01 (Homo sapiens, UniProt P04439, A114D/A174V/A182V/D101N/D185E/E176A/E190D/L180R/Q94H/R68K/S129P/T187R/V100A/V91M/W191G). The series can be described thus: Fluorescence polarization (FP) peptide exchange. Conditions: HLA-A*01:01, chaperone at 5 μM.
For another series, the target named is HLA-B*08:01 (Homo sapiens, UniProt P01889, A93T/A95T/D138N/E176V/E187T/K202T/Q94N/R180D/S35A/V36M/Y33D/Y91F). In words: Fluorescence polarization (FP) peptide exchange. The following applies: based on DSF or FP assays.

B1: hTAPBPR^FLQ: human TAPBPR mutant S104F, K211L, R270Q (protein)
chain: KPHPAEGQWRAVDVVLDCFLAKDGAHRGALASSEDRARASLVLKQVPVLDDGSLEDFTDFQGGTLAQDDPPIIFEASVDLVQIPQAEALLHADCSGKEVTCEIFRYFLQMTETTVKTAAWFMANMQVSGGGPSISLVMKTPRVTKNEALWHPTLNLPLSPQGTVRTAVEFQVMTQTQSLSFLLGSSASLDCGFSMAPGLDLISVEWRLQHLGRGQLVYSWTAGQGQAVRKGATLEPAQLGMARDASLTLPGLTIQDEGTYICQITTSLYQAQQIIQLNIQASPKVRLSLANEALLPTLICDIAGYYPLDVVVTWTREELGGSPAQVSGASFSSLRQSVAGTYSISSSLTAEPGSAGATYTCQVTHISLEEPLGASTQVVPPERR
As for B1, the Tm in series [1] came out at 51.8 °C. In the series with HLA-A*02:01, the affinity, expressed as Kd, was 81 nM. In the series with HLA-A*01:01, the “apparent rate constant kapp” value turned out to be 0.00068 s⁻¹. Further, the Peptide exchange result in the series with HLA-B*08:01 was “failed to catalyze peptide exchange”.
